# Measurements as given in PubChem BioAssay AID463173 (ICCB-Longwood Screening Facility, Harvard Medical School, 2010).
# About 1,700 (3.3%) of roughly 52,000 compounds were called active. Rule as the data show it: active = survival mostly below about 52% (no sharp cut-off); inactive = mostly above about 56%. This is one part of the list.
# Test system: Wild type
# Assay: S. aureus survival, RN4220 and DeltatarO strains – OD600, teichoic acid synthesis inhibitors, primary screen (AID 463173)
# Settings: S. aureus RN4220 wild type/DeltatarO growth, OD600, 18 h, stronger effect = lower value, screened at 18.75 µg/mL (by protocol)
row,Structure (SMILES),survival
1,CCCC1=Nc2cc(C(=O)N3CCC(C)CC3)ccc2Sc2ccc(C)cc21,inactive: 107%
2,CC1=C(C(=O)OC2CCCCCC2)C(c2cccc(Cl)c2)CC(=O)N1 (stereo unspecified),inactive: 124%
3,Cc1ccc2c(=O)c(C(=O)c3cccc(Cl)c3)cn(CC(=O)Nc3ccccc3C(F)(F)F)c2n1,inactive: 102%
4,COc1ccccc1C(=O)OCc1cc(=O)n2nc(C(C)C)sc2n1,inactive: 73%
5,COC(=O)Cn1c(C(O)c2ccccc2)nc2ccccc21 (stereo unspecified),inactive: 97%
6,CC(Oc1ccccc1)C(=O)N1CCCC1 (stereo unspecified),inactive: 112%
7,CCn1nnc(NC(=O)c2ccccc2)n1,inactive: 105%
8,CC1=Nc2cc(C(=O)NCCc3ccc(Cl)cc3)ccc2Sc2c(C)ccc(C)c21,inactive: 91%
9,COc1ccccc1CNC(=O)c1oc2ccc3c(c2c1C)C(=O)CC(C)(C)O3,inactive: 59%
10,COc1ccc(-c2noc(-c3ccc(NCC4CCCO4)c([N+](=O)[O-])c3)n2)cc1OC (stereo unspecified),inactive: 79%
11,CC(=O)Nc1ccc(NC(=O)CCS(=O)(=O)c2ccc3c(c2)CC(=O)N3C)cc1,inactive: 66%
12,CCOC(=O)CC(=O)CSc1nc2ccccc2c(=O)n1CCc1ccc(S(N)(=O)=O)cc1,inactive: 71%
13,CC1CCCCN1CCCNC(=O)c1cc(Sc2ccc(Cl)cc2)nc2ccccc12 (stereo unspecified),inactive: 78%
14,COc1ccc(NC(=O)Cn2cc(S(=O)(=O)Cc3ccc(F)cc3)c3ccccc32)cc1OC,inactive: 70%
15,CCOC(=O)C1CCC(CN(Cc2cccc(Br)c2)S(=O)(=O)c2ccc(Cl)cc2)CC1 (stereo unspecified),inactive: 90%
16,Cc1ccc(C)c(CNC(=O)c2cc3ccccn3n2)c1,inactive: 76%
17,CC1Cc2cc(S(=O)(=O)NCc3ccc(N(C)C)cc3)ccc2N1C(=O)C1CCC1 (stereo unspecified),inactive: 138%
18,COc1ccc(N2CC(NC(=O)COc3ccc4ccccc4c3)CC2=O)cc1OC (stereo unspecified),inactive: 99%
19,CCN1C(=O)C(Cc2nc3ccccc3c(=O)n2-c2ccc(OC)cc2)c2ccccc21 (stereo unspecified),inactive: 73%
20,C/C(=N\NC(=O)Cc1ccc(Cl)cc1)c1ccccc1O,inactive: 114%
21,CCOC(=O)N1CCc2c(sc3c2C(=O)NC(c2ccccc2F)N3)C1 (stereo unspecified),inactive: 66%
22,Cc1ccc(-n2c(=O)c3c4c(sc3n(CC(=O)Nc3ccccc3C)c2=O)CCCCC4)cc1C,inactive: 115%
23,CCCCC1CCC(C(=O)N2CC(=O)Nc3ccc(Cl)cc3C2c2ccc(F)cc2)CC1 (stereo unspecified),inactive: 71%

row,Structure (SMILES),survival
1,O=C1C(c2ccnc3ccccc23)=C(O)c2ccccc21,inactive: 104%
2,CCN(CC)c1ccc(-c2nc(-c3ccco3)no2)cc1[N+](=O)[O-],inactive: 81%
3,CCC(C)NC(=O)c1sc2nc(C)c(C(=O)Nc3ccc(C)cc3C)c(-c3ccccc3Cl)c2c1N (stereo unspecified),inactive: 75%
4,Nc1ccc2nc(CCc3ccccc3)[nH]c2c1,inactive: 106%
5,COc1ccc(NC(=O)c2cnc(N3CCCCC3)c3ccccc23)cc1Cl,inactive: 83%
6,Nc1nnc(CCN2C(=O)CSC2=O)s1,inactive: 106%
7,CCOC(=O)c1cccc2c1N[C@@H](c1ccc(F)cc1)[C@H]1CC=C[C@@H]21,active: 12%
8,Cc1ccc(CCNC(=O)c2ccc3c(=O)n(-c4ccccc4)c(=O)[nH]c3c2)cc1,inactive: 74%
9,Cn1cc(S(=O)(=O)N2CCCCC2)cc1C(=O)Nc1cccc(C#N)c1,inactive: 129%
10,c1ccc(Cn2nnnc2CN2CCCC2)cc1,inactive: 113%
11,Cc1ccc(CNC(=O)Cn2c(=O)n(Cc3ccc(F)cc3)c(=O)c3sc4ccccc4c32)cc1,inactive: 82%
12,c1ccc2c(c1)CC(N1CCCCC1)c1ccccc1N2 (stereo unspecified),inactive: 85%
13,COc1ccc(C(=O)/C=C\Nc2ccc(S(=O)(=O)N=C(N)N)cc2)cc1OC,inactive: 114%
14,O=C(Nc1ccc(Cl)cc1)N1CCC(c2ccccc2)C1 (stereo unspecified),inactive: 74%
15,COc1cccc(N2CC(NC(=O)/C=C\c3ccc(OC)c(OC)c3)CC2=O)c1 (stereo unspecified),inactive: 73%
16,CCC(C)NC(=O)CN1C(=O)COc2ccc(S(=O)(=O)N3CCOCC3)cc21 (stereo unspecified),inactive: 81%
17,CCOc1ccccc1NC(=O)c1c(NCc2sccc2C)sc2c1CCC(C)C2 (stereo unspecified),inactive: 120%
18,Cc1cc(-c2ccc(S(=O)(=O)Nc3ccc(Cl)cc3C)cc2)on1,inactive: 87%
19,CCCN(C(=O)Cn1ncc2c([nH]c3ccc(C)cc32)c1=O)c1ccccc1C,inactive: 59%
20,Cc1cccc(Oc2ccc3c(c2)Oc2ccccc2NC3=O)c1,inactive: 83%
21,Cc1ccc(NC(=O)Cn2cc(S(=O)(=O)N3CCC(C)CC3)c3ccccc3c2=O)c(Br)c1,inactive: 72%
22,CCCCN(CCCNC(=O)c1c(C)oc2nc[nH]c(=O)c12)Cc1ccccc1,inactive: 71%
23,COc1ccc(CNC(=O)c2cnn(-c3ccc(F)cc3)c2-n2cccc2)cc1,inactive: 113%

row,Structure (SMILES),survival
1,CCN(CC)c1ncccc1C(=O)NCc1cccs1,inactive: 107%
2,Cc1ccc(Nc2c(-c3cccnc3)nc3ccc(Br)cn23)cc1,inactive: 73%
3,CNC(=O)c1c(NC(=O)c2ccc(S(=O)(=O)N3CCCCC3C)cc2)sc2c1CCC2 (stereo unspecified),inactive: 65%
4,COc1ccc(-c2nnc(SCC(=O)N(C)Cc3ccccc3)o2)cc1OC,inactive: 84%
5,O=S(=O)(Nc1cccc(-c2ccc(N3CCCC3)nn2)c1)c1ccc(F)c(C(F)(F)F)c1,inactive: 82%
6,CCc1cc2cc(C)cc(C)c2nc1SCC(=O)N1CCN(C(=O)c2ccco2)CC1,inactive: 104%
7,CCOC(=O)c1cc(-c2ccccc2)n(-c2cccc(C(=O)Nc3cccc(C(C)=O)c3)c2)c1C,inactive: 70%
8,COc1cccc(N2CCN(C(=O)CN3C(=O)COc4ccc(S(=O)(=O)N5CCC(C)CC5)cc43)CC2)c1,inactive: 81%
9,Cc1oc2c(c(C)cc3oc(=O)c(CC(=O)NCc4ccccc4)c(C)c32)c1C,inactive: 85%
10,COc1ccc(C)cc1-n1nnc(C(=O)Nc2cccc(SC)c2)c1C,inactive: 88%
11,Cc1c(Cl)cccc1NC(=O)Cn1cc2c(n1)CCCC2,inactive: 89%
12,COc1ccc(C(=O)NCC(c2cccnc2)N2CCc3ccccc32)cc1OC (stereo unspecified),inactive: 82%
13,Cc1cccc(CNC(=O)c2ccc(NC(=O)N3CCSc4ccccc43)cc2)c1,inactive: 75%
14,CC1CCc2c(sc(NC(=O)COc3ccccc3C(C)(C)C)c2C#N)C1 (stereo unspecified),inactive: 84%
15,O=C(CSc1nc2c([nH]c3ccccc32)c(=O)n1-c1ccccc1)N1CCCCCC1,inactive: 78%
16,O=C(NCCCN1CCN(c2ccccc2F)CC1)c1cc2c(s1)-c1ccccc1OC2,active: 11%
17,O=C(O)c1ccc(NC(=O)c2cc3ccccc3o2)cc1,inactive: 72%
18,Cc1ccc(NC(=O)Cn2c(SCc3ccc(F)cc3)nc3cccnc32)cc1F,inactive: 54%
19,CCCCOc1ccc(C(=O)N/C(=C\c2ccc(Br)cc2)C(=O)NC2CCCCC2)cc1,inactive: 75%
20,CSCCC(NS(=O)(=O)c1ccc2c(c1)oc(=O)n2C)C(=O)N1CCN(c2ccc(F)cc2)CC1 (stereo unspecified),inactive: 88%
21,CCc1ccc(-n2nc(C)c3c(C)cc(=O)n(CC(=O)Nc4ccccc4C(=O)OC)c32)cc1,inactive: 76%
22,CCc1cccc(NC(=O)CCS(=O)(=O)c2ccc3nc(C)sc3c2)c1,inactive: 78%
23,Cc1cccc(-n2ccnc2SCC(=O)Nc2ccc3c(c2)OCO3)c1,inactive: 83%

row,Structure (SMILES),survival
1,O=C(Nc1cccc(F)c1)C1CCN(c2nc3ccccc3[nH]2)CC1,inactive: 87%
2,Cc1nc2c3ccccc3nc(NNC(=O)CCC(=O)N3CCN(c4cccc(C(F)(F)F)c4)CC3)n2n1,inactive: 84%
3,O=C1C2CCc3[nH]c4ccccc4c3C2C(=O)N1Cc1ccccc1 (stereo unspecified),inactive: 117%
4,COc1ccc(CNc2ncnc3c2cnn3-c2ccc(C)c(C)c2)cc1,inactive: 129%
5,NC(=O)N1CCCC1=O,inactive: 97%
6,CCNc1nc(=S)nc(NCc2ccccc2)[nH]1,inactive: 105%
7,COc1cccc(C(=O)NC2CC(=O)N(c3ccc4c(c3)OCCO4)C2)c1OC (stereo unspecified),inactive: 153%
8,CCCCSCCCNC(=O)C1CCC(CNS(=O)(=O)c2c(C)cc(C)cc2C)CC1 (stereo unspecified),inactive: 71%
9,CCOc1ccc(CNC(=O)c2ccc3c(c2)nc2n3CCC(C)C2)cc1OC (stereo unspecified),inactive: 73%
10,Cc1csc2nc(CCNS(=O)(=O)c3ccc(F)cc3)cn12,inactive: 60%
11,CC(=O)c1ccc(NC(=O)CCc2c(C)nn(-c3ccc(N4CCCCC4)nn3)c2C)cc1,inactive: 77%
12,O=C(Nc1ccc2oc(-c3ccc(Cl)cc3)nc2c1)c1ccc2ccccc2c1,inactive: 86%
13,O=C(CCOc1ccccc1)N(Cc1cccnc1)c1nc2ccc(F)cc2s1,inactive: 69%
14,CCOC(=O)c1c(NC(=O)c2ccc(OC)c(OC)c2)sc2c1CCCCC2,inactive: 69%
15,CCN(C(=O)c1cc2c(=O)oc3ccc(C)cc3c2s1)c1ccccc1F,inactive: 78%
16,Cn1c(=O)oc2cc(S(=O)(=O)N3CCC(C(=O)N4CCN(c5ccc(Cl)cc5)CC4)CC3)ccc21,inactive: 84%
17,CCOc1ccccc1NC(c1nnc(-c2ccccc2)o1)c1ccc(F)cc1Cl (stereo unspecified),active: 2%
18,Cc1ccc2nc(SCC(=O)NCc3ccco3)c(C)cc2c1,inactive: 117%
19,CCN(CC)c1cc(C)c2cc(NC(=O)c3ccc(F)cc3Cl)ccc2n1,inactive: 65%
20,CCOC(=O)c1cc(C)n(CC2CCC(C(=O)Nc3ccc(C(=O)OC)cc3)CC2)c1C (stereo unspecified),inactive: 73%
21,CCOc1ccc(-c2oc3cc(Cl)ccc3c(=O)c2O)cc1OC,inactive: 103%
22,Cc1cccc(NS(=O)(=O)c2ccc(NC(=O)N3CCCC3)cc2)c1,inactive: 75%
